Source: the supplement of paper PMC7826260
This is one part of the list. Cleavage of a single-stranded DNA pool by Rep nickase domains was read by sequencing (1 h at 37 °C, 3 µM enzyme); the outer parts of the 90-letter strands are left off. Uncut reads are compared with the no-enzyme pool on a log2 scale; more negative means more cut, near 0 not cut, and no call is made. Counts are relative to all reads; where an enzyme cuts many sequences, the uncut ones exceed 0.

Assays:
Assay in all cases: uncleaved DNA left, log2 of reads against the no-enzyme library (log2 ratio); higher = less cleavage (more negative = more Rep cleavage of the k-mer); sequences stand for … in CTCGTCCG…ACCGGAGA
[1] = system: T1, Rep nickase domain of Muscovy duck circovirus
T1 sequence (protein, residues 1-111, tag omitted): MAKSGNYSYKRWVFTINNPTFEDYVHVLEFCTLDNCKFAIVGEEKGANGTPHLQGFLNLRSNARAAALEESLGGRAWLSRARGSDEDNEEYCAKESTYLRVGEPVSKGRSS
Experimental: (§1)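 A pool of 90-nt single-stranded DNAs with seven random bases just before the constant AC of the nick site (name = the seven bases) was cut by 3 µM recombinant His6-SUMO-tagged Rep nickase domain (300 nM DNA, 50 mM HEPES pH 8.0, 50 mM NaCl, 1 mM MnCl2, 1 h, 37 °C, three replicates). Uncut DNA was amplified and sequenced.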

[2] = system: T2, Rep nickase domain of banana bunchy top virus
T2 sequence (protein, residues 1-94, tag omitted): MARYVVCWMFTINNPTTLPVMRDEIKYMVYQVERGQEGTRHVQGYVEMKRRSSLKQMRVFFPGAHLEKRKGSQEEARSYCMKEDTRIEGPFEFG
Experimental: as §1

[3] = system: T3, Rep nickase domain of cabbage leaf curl virus
T3 sequence (protein, residues 1-116, tag omitted): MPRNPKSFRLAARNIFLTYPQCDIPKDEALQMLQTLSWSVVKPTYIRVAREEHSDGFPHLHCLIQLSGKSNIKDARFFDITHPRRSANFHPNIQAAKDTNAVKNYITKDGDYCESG
Experimental: as §1

[4] = system: T4, Rep nickase domain of chickpea chlorotic dwarf virus
T4 sequence (protein, residues 1-124, tag omitted): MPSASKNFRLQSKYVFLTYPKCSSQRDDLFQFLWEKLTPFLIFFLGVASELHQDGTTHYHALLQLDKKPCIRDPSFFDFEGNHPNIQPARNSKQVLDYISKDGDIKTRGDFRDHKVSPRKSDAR
Experimental: as §1

[5] = system: T5, Rep nickase domain of faba bean necrotic yellows virus
T5 sequence (protein, residues 1-98, tag omitted): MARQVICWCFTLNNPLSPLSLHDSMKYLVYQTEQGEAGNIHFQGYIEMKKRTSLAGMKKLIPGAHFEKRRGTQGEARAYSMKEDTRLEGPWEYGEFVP
Experimental: as §1

[6] = system: T6, Rep nickase domain of maize striate mosaic virus
T6 sequence (protein, residues 1-117, tag omitted): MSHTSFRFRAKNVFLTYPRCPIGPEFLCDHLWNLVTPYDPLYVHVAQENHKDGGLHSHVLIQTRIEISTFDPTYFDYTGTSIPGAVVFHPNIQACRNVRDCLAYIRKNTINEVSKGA
Experimental: as §1

[7] = system: T7, Rep nickase domain of porcine circovirus 2
T7 sequence (protein, residues 2-116, tag omitted): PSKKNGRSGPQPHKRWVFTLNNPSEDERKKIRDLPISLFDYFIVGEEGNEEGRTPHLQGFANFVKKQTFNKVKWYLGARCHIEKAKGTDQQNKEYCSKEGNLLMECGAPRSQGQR
Experimental: as §1

[8] = system: T8, Rep nickase domain of tomato golden mosaic virus
T8 sequence (protein, residues 1-124, tag omitted): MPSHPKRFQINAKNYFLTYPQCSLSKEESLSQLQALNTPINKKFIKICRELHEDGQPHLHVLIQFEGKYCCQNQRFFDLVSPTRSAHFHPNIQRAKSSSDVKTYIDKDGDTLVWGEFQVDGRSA
Experimental: as §1

[9] = system: T9, Rep nickase domain of tomato yellow leaf curl virus
T9 sequence (protein, residues 1-136, tag omitted): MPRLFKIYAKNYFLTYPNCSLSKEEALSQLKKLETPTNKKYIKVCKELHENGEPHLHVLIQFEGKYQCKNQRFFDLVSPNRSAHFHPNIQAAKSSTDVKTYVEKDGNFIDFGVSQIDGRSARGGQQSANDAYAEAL
Experimental: as §1

[10] = system: T10, Rep nickase domain of wheat dwarf virus
T10 sequence (protein, residues 1-137, tag omitted): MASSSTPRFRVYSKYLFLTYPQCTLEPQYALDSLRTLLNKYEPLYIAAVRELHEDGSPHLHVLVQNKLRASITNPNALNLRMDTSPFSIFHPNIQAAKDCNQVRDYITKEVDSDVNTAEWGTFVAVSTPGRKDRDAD
Experimental: as §1

Sequence	uncleaved DNA left (log2) [1]	uncleaved DNA left (log2) [2]	uncleaved DNA left (log2) [3]	uncleaved DNA left (log2) [4]	uncleaved DNA left (log2) [5]	uncleaved DNA left (log2) [6]	uncleaved DNA left (log2) [7]	uncleaved DNA left (log2) [8]	uncleaved DNA left (log2) [9]	uncleaved DNA left (log2) [10]
TATTCTG	-0.526	-0.0948	-0.0952	-0.132	0.058	-0.201	-0.0165	-0.0517	-0.0651	-0.0374
TGTTTTA	0.138	-0.0163	0.438	0.365	0.0111	1.51	0.0534	0.117	0.148	0.0568
TGCGGGT	0.0669	0.0608	-0.0706	-0.194	0.0459	0.00346	0.105	-0.0132	0.0129	-0.0451
TCAGGCA	0.0493	0.0183	0.0553	0.332	0.128	0.0314	-0.0242	0.0456	0.0433	0.000902
GTCAGCC	-0.0575	-0.11	0.157	0.551	-0.0495	0.693	-0.0419	-0.025	-0.0975	-0.135
TACTTCG	-0.0817	-0.256	-0.994	-0.59	-0.15	-1.33	0.115	-0.2	-0.149	-0.152
TTATTTT	-3.26	-0.259	-3.45	-3.1	0.0793	-1.8	-3.29	-2.87	-0.0236	-2.96
AATGGTC	0.0208	-0.152	0.0983	0.666	-0.0796	0.652	0.0484	0.002	-0.0158	-0.0333
GACAAAA	-0.0143	0.0692	0.317	0.705	-0.0316	0.435	0.105	0.0187	0.0791	0.0995
CTCCTAC	-0.204	-0.162	-0.355	-2.15	-0.146	-0.843	-0.348	-0.194	-0.219	-0.13
TTACGTA	0.0529	-0.0188	-0.033	-1.22	-0.146	-0.398	-0.213	-0.115	-0.0466	-0.0502
CTTGGCT	-0.00676	-0.0531	-0.434	-1.36	-0.00745	-1.2	-0.0895	-0.0942	-0.0428	-0.0406
AAGTAGG	0.133	-0.0048	-0.136	0.305	-0.00564	-0.288	-0.00348	0.13	-0.0385	-0.00325
CTCGGAT	0.0247	-0.0527	0.215	1.38	0.1	1.82	0.0681	0.094	-0.148	-0.127
CTGCTAC	-0.69	-0.206	-0.345	-1.88	0.0056	-0.923	-1.13	-0.147	0.0138	-0.108
ACACGCC	-0.0107	-0.0806	-0.383	-0.642	-0.0794	-0.61	0.00434	-0.114	-0.179	-0.0662
AACAGTT	0.0573	0.0129	-0.66	-2.36	0.0437	-0.557	-2.76	0.0205	0.103	-0.0686
TCGGTAC	-0.0851	-0.0873	0.263	0.0897	-0.081	0.365	0.0159	-0.079	-0.106	-0.0278
CTATTAT	-1.07	-0.102	-0.496	-1.45	-0.271	-0.772	-1.74	-0.225	-0.187	-0.189
ACTGTCC	0.0779	0.085	0.0781	0.499	-0.0123	0.689	0.122	0.13	0.0173	0.0582

Sequence	uncleaved DNA left (log2) [1]	uncleaved DNA left (log2) [2]	uncleaved DNA left (log2) [3]	uncleaved DNA left (log2) [4]	uncleaved DNA left (log2) [5]	uncleaved DNA left (log2) [6]	uncleaved DNA left (log2) [7]	uncleaved DNA left (log2) [8]	uncleaved DNA left (log2) [9]	uncleaved DNA left (log2) [10]
GCTGTCC	-0.0482	0.032	0.132	0.541	-0.0626	0.762	0.00608	-0.0599	-0.136	-0.0752
ACTGCTC	0.00279	0.0645	-0.0344	0.129	0.0507	-0.279	0.0063	-0.0146	0.0814	0.0206
ACCACAC	-0.109	0.00409	-0.0994	-0.394	-0.0459	-0.951	0.0149	-0.035	-0.0462	-0.164
GGCGGTT	0.0605	-0.018	0.262	0.603	-0.101	1.35	-0.156	-0.0913	0.00997	0.0316
GTGATTT	-0.0917	-0.0669	0.243	0.744	-0.162	1.63	-0.123	-0.0968	-0.0624	0.0518
CAACGGT	0.0313	-0.0281	-0.00274	-0.342	-0.00696	0.605	-0.0249	-0.0385	-0.145	-0.21
GTCTTTG	-0.0604	-0.0852	0.198	0.788	-0.051	1.64	-0.0483	0.053	-0.0902	-0.0802
TCCATAC	0.00847	-0.094	-0.0547	-0.734	-0.0295	-0.911	0.0644	-0.0361	-0.0094	-0.112
TTTGCCG	-0.0961	-0.193	-0.925	0.494	-0.171	-0.806	0.0179	-0.341	-0.000988	-0.177
CGGCATT	-0.0515	-0.243	0.635	1.42	-0.13	1.9	-0.0634	-0.363	-0.1	0.0319
TTCTGTG	-0.0165	-0.0386	-0.881	-0.519	0.0827	-0.967	0.1	0.01	-0.0312	-0.0567
AAACCAG	-0.0112	0.0236	-0.747	-0.858	-0.0568	-1.05	-0.281	0.0156	0.0823	-0.0594
CGCGCGT	-0.0659	-0.0845	-0.77	-0.619	-0.045	-0.593	-0.00653	-0.113	-0.0686	-0.153
CAACACA	0.019	0.144	-0.389	-2.25	0.0704	-0.696	-0.1	0.0493	0.0378	0.115
ACCAATG	0.0592	0.0531	-0.79	-0.353	0.0117	-1.01	0.104	0.0153	0.0773	-0.122
CGCGTCC	-0.00409	0.0287	-0.0069	-0.0993	0.0301	-0.305	-0.0615	-0.121	0.0595	0.0429
GCCAGTC	0.0296	0.0469	0.0867	0.214	-0.187	-0.185	0.142	0.0273	-0.022	-0.0753
CTGTAGT	-1.58	-0.36	-0.464	-0.949	-0.669	-0.961	-3.52	0.0907	-0.109	-0.123
CAGCCAT	-0.048	-0.062	-0.0394	-0.838	-0.164	-0.0731	-1.07	0.071	0.0579	-0.0581
CGTGATC	-0.186	-0.0875	0.049	0.224	0.033	0.0876	-0.0288	0.0328	0.137	-0.00921

Sequence	uncleaved DNA left (log2) [1]	uncleaved DNA left (log2) [2]	uncleaved DNA left (log2) [3]	uncleaved DNA left (log2) [4]	uncleaved DNA left (log2) [5]	uncleaved DNA left (log2) [6]	uncleaved DNA left (log2) [7]	uncleaved DNA left (log2) [8]	uncleaved DNA left (log2) [9]	uncleaved DNA left (log2) [10]
GTCCGAT	-0.0736	0.00961	0.286	0.893	-0.122	1.52	-0.0674	-0.0882	-0.0506	-0.0962
TTGTCGT	0.102	0.0215	-0.724	-0.599	0.00121	-0.979	-0.062	0.0113	0.0966	-0.0409
TAAGTCA	0.0246	0.0426	-1.42	-2.52	0.0518	-0.545	-0.0689	-0.13	0.0776	-0.854
ACCCGTG	0.102	0.0231	-0.646	-0.187	-0.0931	-0.849	0.123	0.0535	-0.0144	-0.142
ACATTAT	-0.248	-0.0267	-0.18	-1.22	-0.00475	-0.869	-0.656	-0.00143	-0.226	-0.0119
TGAAATT	0.0919	0.101	0.236	-1.93	0.158	0.192	-0.608	0.0777	0.208	0.0613
CTATTGC	-0.129	0.0396	-0.751	0.142	0.0301	-0.871	0.0261	-0.112	0.0378	-0.0209
CCTGTAT	-0.0538	-0.0433	-0.0323	-0.485	0.0315	-0.434	-0.0717	-0.078	0.0134	-0.0826
TGCATTT	-0.0457	-0.054	-0.119	-1.64	-0.149	-0.68	-0.28	-0.174	0.0375	-0.0426
ACCCCCT	-0.0262	-0.0709	-0.22	-2.01	-0.108	-0.335	-0.229	-0.0156	-0.255	-0.017
GTTGGCG	-0.0245	-0.111	-0.712	0.539	0.00305	-0.396	-0.00592	-0.0866	-0.0877	-0.196
ACAGATT	-0.0436	-0.188	-0.257	-2.42	0.0368	-0.695	-0.22	-0.0317	-0.0848	-0.183
TTGTTGT	-0.304	-0.182	-0.376	-0.875	-0.0455	-1.18	-1.49	-0.273	0.0138	-0.228
GCTATCC	0.0103	0.0906	0.173	0.524	0.0416	0.306	0.17	0.0232	0.0191	0.0807
CATCGGT	-0.00924	-0.106	0.0768	0.0864	0.031	-0.0358	0.0199	0.023	0.0375	0.000603
GGGCCTA	0.0403	-0.0348	0.812	1.93	-0.0237	2.18	0.113	0.0571	0.0194	0.126
CGTCCCC	-0.0959	0.00216	0.128	0.148	-0.0843	0.00895	-0.245	-0.231	-0.0191	-0.0121
GCGACAG	-0.051	0.101	0.0887	0.878	-0.0554	1.66	0.00211	-0.0222	-0.189	0.0224
CGTCTCA	0.194	0.0866	0.153	-0.271	0.0993	0.135	-0.0269	0.0798	0.189	0.171
ATGTAGT	-1.34	-0.468	-0.399	-1.04	-0.54	-1.03	-3.48	-0.0151	-0.102	-0.128
